{
  "source": "PubChem BioAssay AID588855",
  "about": "(National Center for Advancing Translational Sciences (NCATS), 2011)",
  "note": "The campaign covered roughly 410,000 compounds. About 5,000 (1.2%) were called active. The shares of active, inactive and inconclusive entries below differ from those in the screen. The call rests on the fitted dose curve; in most records, active means well fitted inhibition curve with a large enough effect; inconclusive means small, poorly fitted or top-dose-only effect; inactive means no such curve, though single readings can be large or run the other way. Where the call is inconclusive, the potency comes from a doubtful curve fit. Potency means the concentration at half of the fitted maximal effect; tags describe the fitted curve by direction and shape.",
  "data": [
    {"experiment": "qHTS for Inhibitors of TGF-b; further: nearly all actives have a fitted effect of over 65% in size", "conditions": "HepG2 CAGA-GFP TGF-b/SMAD3 reporter, GFP fluorescence, 18 h, TGF-beta stimulated, 500 pg/mL final; series mostly up to 46.1 µM", "in_short": "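First, reporter cells (HEPG2 CAGA-GFP) rested 2 h at 37 degrees C. Next, compounds were pinned in and TGF-beta added to 500 pg/mL final. After 18 h, GFP was imaged per cell and summed per well.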", "values": [
      {"smiles": "C[C@@H]1CN([C@@H](C)CO)S(=O)(=O)c2ccc(C#Cc3cccc(F)c3)cc2O[C@H]1CN(C)S(=O)(=O)c1cn(C)cn1", "Potency": "inconclusive: 35.5 µM [inhibitor, single point]"},
      {"smiles": "CC(=O)NCCn1c(C)cc2ccccc21", "Potency": "inactive"},
      {"smiles": "COCCCNC(=O)Cn1ccc(N)nc1=O", "Potency": "inconclusive: 20 µM [inhibitor, partial curve, poor fit]"},
      {"smiles": "CCNc1nc(NCC)nc(OCCOC(=O)c2ccccc2)n1", "Potency": "inactive"},
      {"smiles": "O=C(CCNc1cccc(F)c1)c1cccc([N+](=O)[O-])c1", "Potency": "active: 12.6 µM"},
      {"smiles": "COc1cccc(CNC(=O)CSc2cc(C)[nH]c(=O)n2)c1", "Potency": "inconclusive: 35.5 µM [inhibitor, single point]"},
      {"smiles": "CCn1cc(CNC(=O)c2ccc3nc(Cc4ccccc4F)oc3c2)cn1", "Potency": "inconclusive: 10 µM [inhibitor, partial curve]"},
      {"smiles": "CCc1nn(CCCN2CCN(c3cccc(Cl)c3)CC2)c(=O)n1CCOc1ccccc1", "Potency": "inconclusive: 12.6 µM [inhibitor, partial curve, poor fit]"},
      {"smiles": "O=C(Nc1ccncc1)Nc1cc(Cl)ccc1Cl", "Potency": "inactive"},
      {"smiles": "CCOc1cc2c(c3c1C(c1ccccc1)N(S(=O)(=O)c1ccc(C)cc1)C3)C(=O)C=CC2=O", "note": "(stereo not drawn)", "Potency": "inconclusive: 7.08 µM [inhibitor, full curve, poor fit]"},
      {"smiles": "Cc1csc(=Nc2ccc(S(=O)(=O)N3CCOCC3)cc2)n1Cc1ccco1", "Potency": "inactive"},
      {"smiles": "COCCN=c1scc(-c2cc(OC)ccc2OC)n1/N=C/c1c[nH]c2ccccc12", "Potency": "inconclusive: 22.4 µM [inhibitor, single point]"},
      {"smiles": "O=S(=O)(NCc1ccco1)N1CCCCCC1", "Potency": "inactive"},
      {"smiles": "O=C(Nc1ccc(F)c(Cl)c1)C1Cc2c(-c3ccc4c(c3)OCO4)ccnc2O1", "note": "(stereo not drawn)", "Potency": "inconclusive: 15.8 µM [inhibitor, single point]"},
      {"smiles": "Cc1ccc2nc(-c3ccc(SCC(=O)N4CCc5ccccc54)nc3)[nH]c2c1", "Potency": "inconclusive: 14.1 µM [inhibitor, single point]"},
      {"smiles": "COc1cccc(-c2cnc3c(c2)C(=O)N([C@H](C)CO)C[C@@H](C)[C@H](CN(C)C(=O)Nc2ccccc2F)O3)c1", "Potency": "inactive"},
      {"smiles": "O=C1NCC(Nc2ccc(Cl)cc2)C(=O)N1", "note": "(stereo not drawn)", "Potency": "inactive"},
      {"smiles": "COc1ccc2nc(NC(=O)CSc3nnc(C)n3N)sc2c1", "Potency": "inconclusive: 35.5 µM [inhibitor, single point]"},
      {"smiles": "CCc1ccccc1N(C)S(=O)(=O)c1ccc(-c2cc(C)no2)s1", "Potency": "inconclusive: 3.55 µM [inhibitor, single point]"},
      {"smiles": "O=C(c1ccc(N2CCN(C(=O)c3ccc(F)cc3F)CC2)cc1)c1cccc(F)c1", "Potency": "inconclusive: 35.5 µM [inhibitor, single point]"},
      {"smiles": "CC(Oc1ccccc1)C(=O)N[C@@H]1C(=O)N2C(C(=O)OCC3CCCCC3)C(C)(C)S[C@H]12", "note": "(stereo partly drawn)", "Potency": "inconclusive: 35.5 µM [inhibitor, single point]"},
      {"smiles": "CCN(CC)CCNC(=O)c1sc2ncn(CC(=O)Nc3ccc(C)c(Cl)c3)c(=O)c2c1C", "Potency": "inconclusive: 35.5 µM [inhibitor, single point]"},
      {"smiles": "Cn1c(OCc2cccnc2)nc2c1c(=O)n(Cc1ccc(Br)cc1)c(=O)n2C", "Potency": "inactive"},
      {"smiles": "Nc1nc(SCc2nc3sc4c(c3c(=O)[nH]2)CCCC4)n[nH]1", "Potency": "inconclusive: 35.5 µM [inhibitor, single point]"},
      {"smiles": "CCc1ccccc1N(C)S(=O)(=O)c1ccc2[nH]cc(C(=O)N3CCc4ccccc43)c(=O)c2c1", "Potency": "inconclusive: 20 µM [inhibitor, single point]"},
      {"smiles": "CC(C)(C)c1ccccc1NC(=O)CSc1nc(-c2cccs2)cc(C(F)(F)F)n1", "Potency": "inconclusive: 12.6 µM [inhibitor, partial curve, poor fit]"},
      {"smiles": "Cc1cc(C)cc(OC(=O)N2CCOCC2)c1", "Potency": "inconclusive: 6.31 µM [inhibitor, single point]"},
      {"smiles": "Cc1cc(Nc2ccc(Cl)cc2C)nc(-n2nc(C)cc2C)n1", "Potency": "inactive"},
      {"smiles": "COc1ccc(S(=O)(=O)N2CCC(C)CC2)cc1OC", "Potency": "inactive"},
      {"smiles": "O=C(Nc1cccc(Cl)c1Cl)c1cc(S(=O)(=O)NCCc2ccccc2)ccc1F", "Potency": "inconclusive: 15.8 µM [inhibitor, single point]"},
      {"smiles": "CCCSC1=N/C(=C/c2ccsc2)C(=O)N1c1ccccc1", "Potency": "inactive"},
      {"smiles": "Cc1ccc(/C=N/NC(=O)c2cccs2)cc1[N+](=O)[O-]", "Potency": "inconclusive: 11.2 µM [inhibitor, single point]"},
      {"smiles": "COc1ccc2[nH]c3c(c2c1)CCN1C(=O)C(CC(=O)NCc2ccc(OC)c(OC)c2)C[C@H](C(=O)N(C(C)C)C(C)C)[C@@]31C", "note": "(stereo partly drawn)", "Potency": "inconclusive: 10 µM [inhibitor, partial curve]"},
      {"smiles": "CCn1c(SCc2cccc(C)c2)nnc1-c1ccc(C)cc1", "Potency": "inconclusive: 35.5 µM [inhibitor, single point]"},
      {"smiles": "Cc1ccccc1-n1c(SCC(=O)N/N=C/c2c(C)nn(-c3ccccc3)c2C)nc2ccccc2c1=O", "Potency": "inconclusive: 3.98 µM [inhibitor, full curve, poor fit]"},
      {"smiles": "Cc1cccc(N=Nc2c(N)n[nH]c2-c2ccc(Cl)cc2)c1", "Potency": "inconclusive: 22.4 µM [inhibitor, single point]"},
      {"smiles": "COc1ccccc1C(=O)Nc1cccc(C(=O)OCc2cc(=O)n3nc(C)sc3n2)c1", "Potency": "inactive"},
      {"smiles": "CCc1nc2ccc(C(=O)Nc3ccc(OC)c(OC)c3)cn2c1N(C)Cc1ccc(N(C)C)cc1", "Potency": "inactive"},
      {"smiles": "Cc1c(Cl)cccc1NC(=O)Cn1nnc2sc3c(c2c1=O)CCCC3", "Potency": "inactive"},
      {"smiles": "Cc1ccc(-c2nnc(Nc3ccccc3)c3ccccc23)cc1S(=O)(=O)NCc1nc2ccccc2[nH]1", "Potency": "inconclusive: 3.98 µM [inhibitor, partial curve, poor fit]"},
      {"smiles": "COc1cc(/C=N/NC(=O)c2ccccc2)ccc1O", "Potency": "inactive"},
      {"smiles": "Cc1cccc(C(=O)Nc2c(C#N)c(C)c(C)n2Cc2ccccc2)c1", "Potency": "inconclusive: 8.91 µM [inhibitor, partial curve, poor fit]"},
      {"smiles": "COc1ccc(C(=O)/C=C2\\C(=O)Nc3ccc(Br)cc32)cc1", "Potency": "inconclusive: 22.4 µM [inhibitor, single point]"}
    ]}
  ]
}
